In one assay the test system is HSkMC. Put plainly: cytotoxicity call (relative viability < 0.9). The conditions noted are these: 10 µM.
The subject of the next assay is HepG2. Put plainly: cytotoxicity call (relative viability < 0.9). As to conditions: 10 µM.
The subject of the next assay is S. aureus RN4220. Description: growth inhibition call (relative growth <= 0.2). As to conditions: 50 µM.

The other results are listed elsewhere or left out.

With `CO[C@H](CN(C)S(=O)(=O)c1ccc(C)cc1)[C@H](C)CN([C@H](C)CO)S(=O)(=O)c1cccc(Cl)c1`, the cytotoxicity call with HSkMC and in the assay with HepG2 was “inactive” each time. For the same compound, the growth inhibition call with S. aureus RN4220 is “inactive”.

`COCC#Cc1cnc2c(c1)C(=O)N([C@@H](C)CO)C[C@@H](C)[C@@H](CN(C)S(=O)(=O)c1cn(C)cn1)O2`: the cytotoxicity call in the assay with HSkMC and in the assay with HepG2 was “inactive” in each case. Besides, the growth inhibition call in the assay on S. aureus RN4220 was “inactive”.

For the compound `Cn1c(=O)c2c(ncn2C)n(C)c1=O`, the cytotoxicity call with HSkMC and in the assay on HepG2 was “inactive” in each case. For the same compound, the growth inhibition call with S. aureus RN4220 was “inactive”.

Consider `CC(C)NC(=O)N(C)C[C@@H]1Oc2c(NS(=O)(=O)c3ccc(Cl)cc3)cccc2C(=O)N([C@@H](C)CO)C[C@@H]1C`, for which the cytotoxicity call with HSkMC and with HepG2 was “inactive” throughout. Also, in the assay with S. aureus RN4220, the growth inhibition call is “inactive”.

As for `COc1ccc(CN(C)C[C@@H]2Oc3ccc(NC(=O)Nc4ccc(C(F)(F)F)cc4)cc3C(=O)N([C@@H](C)CO)C[C@H]2C)cc1`, the cytotoxicity call in the assay with HSkMC and in the assay on HepG2 was “active” in each case. For the same compound, the growth inhibition call in the assay on S. aureus RN4220 is “inactive”.

In the case of `C[C@@H]1CCCCO[C@H](CN(C)C(=O)CCC(F)(F)F)[C@@H](C)CN([C@H](C)CO)C(=O)c2cc(NS(=O)(=O)c3ccc(F)cc3)ccc2O1`, the cytotoxicity call in the assay with HSkMC and in the assay with HepG2 was “inactive” each time. In the assay on S. aureus RN4220, the growth inhibition call was “inactive”.

In the case of `C[C@@H]1CCCCO[C@H](CN(C)Cc2ccc(C(=O)O)cc2)[C@@H](C)CN([C@@H](C)CO)C(=O)c2cc(NC(=O)c3ccccc3)ccc2O1`, the cytotoxicity call with HSkMC and in the assay on HepG2 was “inactive” in each case. Also, in the assay with S. aureus RN4220, the growth inhibition call is “inactive”.

For `COc1ccc(S(=O)(=O)N(C)C[C@@H]2OCCCC[C@@H](C)Oc3ccc(NS(C)(=O)=O)cc3C(=O)N([C@@H](C)CO)C[C@@H]2C)cc1`, the cytotoxicity call in the assay on HSkMC and in the assay with HepG2 was “inactive” throughout. For the same compound, in the assay with S. aureus RN4220, the growth inhibition call was “inactive”.

Take `C[C@@H]1CN([C@H](C)CO)C(=O)c2c(c3ccccc3n2C)-c2ccccc2CO[C@H]1CN(C)Cc1cccc(F)c1`: the cytotoxicity call in the assay on HSkMC and in the assay with HepG2 was “inactive” each time. Also, the growth inhibition call in the assay on S. aureus RN4220 is “inactive”.

`CC(C)(C)[S@@](=O)N1Cc2cc(C(=O)NCCN3CCCCC3)nc(-c3cccc(-c4ccc(C#N)cc4)c3)c2[C@H]1CCO`: the cytotoxicity call in the assay with HSkMC and in the assay on HepG2 was “inactive” throughout. Further, in the assay with S. aureus RN4220, the growth inhibition call was “inactive”.

For `C[C@@H]1CN([C@@H](C)CO)C(=O)c2cc(C#CC3CCCC3)cnc2O[C@H]1CN(C)S(=O)(=O)c1cccc(F)c1`, the cytotoxicity call in the assay with HSkMC is “inactive”. Moreover, in the assay with HepG2, the cytotoxicity call was “active”. In addition, the growth inhibition call in the assay on S. aureus RN4220 is “inactive”.

For `C[C@@H]1CN([C@@H](C)CO)C(=O)c2cc(NC(=O)c3ccncc3)ccc2O[C@@H](C)CCCCO[C@H]1CN(C)C(=O)Nc1ccc(C(F)(F)F)cc1`, the cytotoxicity call with HSkMC and in the assay with HepG2 was “inactive” in each case. For the same compound, the growth inhibition call with S. aureus RN4220 was “inactive”.

As for `CNC(=O)CN1CCOC[C@]2(CCCN(C(C)=O)C2)C1`, the cytotoxicity call in the assay on HSkMC and in the assay on HepG2 was “inactive” in each case. The growth inhibition call in the assay with S. aureus RN4220 is “inactive”.

Regarding `Cc1ccc(S(=O)(=O)N(C)C[C@@H]2Oc3c(NS(=O)(=O)c4cccs4)cccc3C(=O)N([C@H](C)CO)C[C@H]2C)cc1`, the cytotoxicity call in the assay with HSkMC and in the assay with HepG2 was “inactive” throughout. The growth inhibition call in the assay with S. aureus RN4220 was “inactive”.

As to `Cc1ccccc1S(=O)(=O)N1C[C@@H](O)COC[C@H]2O[C@@H](CC(=O)NCCc3ccccc3)CC[C@@H]21`, the cytotoxicity call with HSkMC and in the assay with HepG2 was “inactive” in each case. The growth inhibition call in the assay with S. aureus RN4220 was “inactive”.

Consider `C[C@H]1CN([C@@H](C)CO)C(=O)c2cccc(NC(=O)C3CCOCC3)c2O[C@H]1CN(C)Cc1ccc(Oc2ccccc2)cc1`, for which the cytotoxicity call in the assay with HSkMC and in the assay on HepG2 was “inactive” throughout. For the same compound, the growth inhibition call in the assay with S. aureus RN4220 is “inactive”.

With `C[C@@H]1CN([C@H](C)CO)C(=O)c2cc(NC(=O)NC3CCCCC3)ccc2O[C@@H](C)CCCCO[C@H]1CN(C)C(=O)c1ccncc1`, the cytotoxicity call with HSkMC and with HepG2 was “inactive” in each case. In addition, the growth inhibition call in the assay with S. aureus RN4220 is “inactive”.

For `C[C@H](CO)N1C[C@H](C)[C@H](CN(C)Cc2ccc(C(F)(F)F)cc2)OCCCC[C@H](C)Oc2ccc(NC(=O)C3CCCCC3)cc2C1=O`, the cytotoxicity call in the assay on HSkMC and in the assay on HepG2 was “inactive” throughout. Further, the growth inhibition call with S. aureus RN4220 is “inactive”.

Turning to `COc1cccc(S(=O)(=O)N(C)C[C@H]2OCc3cn(nn3)CCCC(=O)N([C@@H](C)CO)C[C@@H]2C)c1`, the cytotoxicity call with HSkMC and in the assay with HepG2 was “inactive” each time. Moreover, the growth inhibition call in the assay with S. aureus RN4220 was “inactive”.

In the case of `C[C@H]1CN([C@@H](C)CO)C(=O)c2cccc(NS(=O)(=O)c3cccs3)c2O[C@H]1CN(C)Cc1ccncc1`, the cytotoxicity call with HSkMC and in the assay on HepG2 was “inactive” each time. In addition, the growth inhibition call in the assay with S. aureus RN4220 was “inactive”.

On to `Oc1ccc([C@H]2CNCCN2)cc1`, for which the cytotoxicity call in the assay with HSkMC and with HepG2 was “inactive” in each case. The growth inhibition call with S. aureus RN4220 is “inactive”.

Consider `COc1ccc(CNC(=O)C[C@H]2CC[C@@H]3[C@H](COc4ccc(NC(=O)C(C)C)cc4C(=O)N3C)O2)cc1`, for which the cytotoxicity call in the assay on HSkMC (human skeletal muscle cells) and in the assay with HepG2 was “inactive” throughout. The growth inhibition call with S. aureus RN4220 was “inactive”.

`C[C@@H]1CCCCO[C@@H](CN(C)Cc2ccc(Cl)c(Cl)c2)[C@@H](C)CN([C@H](C)CO)C(=O)c2cc(NC(=O)c3ccncc3)ccc2O1`: the cytotoxicity call in the assay with HSkMC and with HepG2 was “inactive” in each case. In the assay with S. aureus RN4220, the growth inhibition call is “inactive”.

`CO[C@@H]1CN(C)C(=O)c2cc(NC(=O)Nc3c(C)noc3C)ccc2OC[C@@H](C)N(C(=O)Nc2cccc(Cl)c2)C[C@H]1C`: the cytotoxicity call in the assay with HSkMC and with HepG2 was “inactive” in each case. Moreover, the growth inhibition call in the assay on S. aureus RN4220 is “inactive”.

Take `COc1ccccc1S(=O)(=O)N(C)C[C@@H]1OCc2cnnn2CCCC(=O)N([C@H](C)CO)C[C@@H]1C`: the cytotoxicity call with HSkMC and in the assay on HepG2 was “inactive” in each case. For the same compound, in the assay on S. aureus RN4220, the growth inhibition call is “inactive”.

The record behind these values is the antibiotic and cytotoxicity screens of Wong et al. (2023).
